The results in this text go back to publication PMC7819943, “Rice protein-binding microarrays: a tool to detect cis-acting elements near promoter regions in rice”.

Some of the results follow.

The target of this assay is T1, OsWOX13 (Oryza sativa, UniProt Q5QMM3 1-267).
T1 sequence: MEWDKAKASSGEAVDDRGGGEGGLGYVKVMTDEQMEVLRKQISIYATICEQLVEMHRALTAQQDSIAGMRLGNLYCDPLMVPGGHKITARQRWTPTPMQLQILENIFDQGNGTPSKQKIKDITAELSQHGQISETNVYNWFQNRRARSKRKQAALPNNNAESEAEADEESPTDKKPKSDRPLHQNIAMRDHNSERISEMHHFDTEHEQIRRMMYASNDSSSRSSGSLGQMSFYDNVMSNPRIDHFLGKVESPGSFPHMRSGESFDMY
Description: protein-binding microarray (RPBM); PBS, 2% BSA, 51.3 ng/ul salmon testes DNA, 50 uM zinc acetate, 200 nM TF, 25 C, 1 h; high values mean tight binding. As to conditions: protein: recombinant; tags: N-terminal polyhistidine and DsRed monomer fusion (pET32a); label: CyDye5-dUTP incorporated in the synthesized complementary strand; 3' TTTTT single-stranded linker to array surface; dsDNA, one strand shown. Put shortly:
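Transcription factors were each fused at the N-terminus to a polyhistidine tag plus DsRed and expressed in E. coli BL21-CodonPlus before Ni–NTA purification. Binding to a double-stranded custom Agilent array was carried out with 200 nM protein at 25 °C for 1 h in PBS, 2% BSA, salmon testes DNA and 50 µM zinc acetate. The binding signal is per-feature fluorescence intensity, in arbitrary units, on an Axon 4000B scanner.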
Regarding “TGTACATTATTATTGATCACTAATAGCCATATCCAAGCATCGGAGTCACCTAGTGCAG”, the binding signal was 7660 fluorescence intensity (a.u.).
Then “GCCACTTTACCATTTTCATCATTTCTTCCATTTTAAGTTTCGGAGTCACCTAGTGCAG”, with 5000 fluorescence intensity (a.u.); and “ATCTTATCTCTATAATTTATATTTAAACTTTCCTCCGAACCGGAGTCACCTAGTGCAG”, with 4050 fluorescence intensity (a.u.).
Then “GCCCACTCATAATTTCTCCCTTGATTTGTAAAGAAATAAGCGGAGTCACCTAGTGCAG”, with 16000 fluorescence intensity (a.u.).
Take “ATTGCTAACAACACAATTATCAGTTCCATCAAAGCTATAGCGGAGTCACCTAGTGCAG”: the binding signal is 3940 fluorescence intensity (a.u.).
With “GCATTTGATTGTGCGAGCTGGGTTTACAGCTACACTTATACGGAGTCACCTAGTGCAG” the figure was 15900 fluorescence intensity (a.u.).
With “TCCTGCAAAATAGATTGGCCGCGTGCGTGTGCGTGTCCACCGGAGTCACCTAGTGCAG” the figure was 27100 fluorescence intensity (a.u.).
Then “CATGTTACATTTATTGAACCTAATTTTATATTGTGGATGTCGGAGTCACCTAGTGCAG”, with 3540 fluorescence intensity (a.u.); and “CGTCCAATCACAATCCAACGATCCAACCGACGCGAAACCGCGGAGTCACCTAGTGCAG”, with 20700 fluorescence intensity (a.u.).
For the sequence “ATCTGATTCATCAATAACAAAAGACATTGTTCCAATCCAGCGGAGTCACCTAGTGCAG”, the binding signal was 4820 fluorescence intensity (a.u.).
With “GCGTAATAGTAATAATTGATTAATGGTGACACGAGAAGGACGGAGTCACCTAGTGCAG” the figure was 46600 fluorescence intensity (a.u.); with “TAGAATTGATGATACTAGCTATAACTTCCGAGTGAGCACACGGAGTCACCTAGTGCAG”, 16900 fluorescence intensity (a.u.); with “AATAACTGGTTATCTTCATCATTTTGAGCAATAGCGTCGACGGAGTCACCTAGTGCAG”, 4970 fluorescence intensity (a.u.).
For the sequence “TTTGATAAACATATCTTACTTTTCTATCTATTCAAACCACCGGAGTCACCTAGTGCAG”, the binding signal was 3380 fluorescence intensity (a.u.).
Then “GAGTTATTAATTGAACACATTTCTTCCGTGTGAGATGTGACGGAGTCACCTAGTGCAG”, with 10700 fluorescence intensity (a.u.); and “ACAATTGGCTAATTGTGTGTTGGATTGTTGGGTGTATGAACGGAGTCACCTAGTGCAG”, with 22600 fluorescence intensity (a.u.).
As to “GAGAAACGGTAAGATTGACGGATTGGTGGGAATTATATATCGGAGTCACCTAGTGCAG”, the binding signal was 6420 fluorescence intensity (a.u.).
With “TGGCCTAATGATTTAGTAGAGTTTGCACCCTGCAATCGGTCGGAGTCACCTAGTGCAG” the figure was 6530 fluorescence intensity (a.u.); with “AGGGAATGATTGTTTGAACACACTAAAACTTACGGTTTGCCGGAGTCACCTAGTGCAG”, 22300 fluorescence intensity (a.u.); with “CATCTGATTTACACTGAATACACTTTTACTTCAACATGTACGGAGTCACCTAGTGCAG”, 14600 fluorescence intensity (a.u.).
Then “TTAAATGACATGCCAAAGTTACCTTCGTTTTGTTCTAAGTCGGAGTCACCTAGTGCAG”, with 3270 fluorescence intensity (a.u.); and “AATCCATAATTAGAGAATGTTTACTGTAGCATCACATAGGCGGAGTCACCTAGTGCAG”, with 15900 fluorescence intensity (a.u.).
As for “ACACAACTTGTTAATTTGACCTGTAGCCCCATCATGTACACGGAGTCACCTAGTGCAG”, the binding signal is 3150 fluorescence intensity (a.u.).
Then “TTTGATTATTTGATCTTTGTTCTTCGTGCAGGTTTGAAAACGGAGTCACCTAGTGCAG”, with 18900 fluorescence intensity (a.u.); and “AAAATAGACAGACGGCAAGTTGTACACACATATCCAGGGGCGGAGTCACCTAGTGCAG”, with 20700 fluorescence intensity (a.u.).
With “ACATCTCACCGTCAATCTTGTTTTCACGGTACATAATTTGCGGAGTCACCTAGTGCAG” the figure was 4610 fluorescence intensity (a.u.); with “GCTGATAAGATGTTGATTTGCATGGATTAAGCTATGATTGCGGAGTCACCTAGTGCAG”, 28900 fluorescence intensity (a.u.).
With “TCACTCATTGGAATTAATTAATGTTTTATGTAGTGGTTTTCGGAGTCACCTAGTGCAG” the figure was 21900 fluorescence intensity (a.u.).
Take “ACCAGATTGCTTTTATATCCATTAGCCCACATGCAAGCAACGGAGTCACCTAGTGCAG”: the binding signal is 11900 fluorescence intensity (a.u.).
Then “ACGAGCCTAATTGTGTGTAACTTTAGAATAAATTAGTATCCGGAGTCACCTAGTGCAG”, with 12200 fluorescence intensity (a.u.).
Then “CCGCCGCATCCTCGAATCCAATCATTCAATCAAGGAGGAGCGGAGTCACCTAGTGCAG”, with 16600 fluorescence intensity (a.u.).
Then “CCCATGATTGATGAGACTTCAGAGCATGTACTGTAGTGGTCGGAGTCACCTAGTGCAG”, with 43800 fluorescence intensity (a.u.); and “GGTGATTTTAGCTGACGTAGCGCCTATATGTATGTTTTGACGGAGTCACCTAGTGCAG”, with 10200 fluorescence intensity (a.u.).
Regarding “TCACTGTTATTTAATTATATATATATATATATATTCATGCCGGAGTCACCTAGTGCAG”, the binding signal was 8880 fluorescence intensity (a.u.).
For “TGTAGATGAAATAATTAATAGATAAAGTAGTGAGATACATCGGAGTCACCTAGTGCAG”, the binding signal is 7990 fluorescence intensity (a.u.).
Then “TTCCACGTAGTCAATCATTAAGGTTGGACTGAAACGTAATCGGAGTCACCTAGTGCAG”, with 10300 fluorescence intensity (a.u.); and “TGTGAGATGACCAGCGAGTGATTGGTAAACTGTTTCAGTGCGGAGTCACCTAGTGCAG”, with 17600 fluorescence intensity (a.u.); and “AGTGATTAGTAGCAGCAGAAAGAGTGGAAGATTTAGAGGACGGAGTCACCTAGTGCAG”, with 17800 fluorescence intensity (a.u.).
With “AATACACTAAAATTACATATGTAATTTAGGGACTTACAATCGGAGTCACCTAGTGCAG” the figure was 3220 fluorescence intensity (a.u.); with “AACTTCGATCAATCAATCTTCAGTAGAAACCAGCACACCTCGGAGTCACCTAGTGCAG”, 26900 fluorescence intensity (a.u.).
With “TAAAATAATTAATACTCAATTAATAATACGCTAATAGCCCCGGAGTCACCTAGTGCAG” the figure was 32700 fluorescence intensity (a.u.); with “TGAATATGTCCCAAATTAATTGTCACAATGGAGTACTAATCGGAGTCACCTAGTGCAG”, 3200 fluorescence intensity (a.u.); with “TGTAACAAACCCTAATCAACATATTCTCGTGACTGGAGGGCGGAGTCACCTAGTGCAG”, 8690 fluorescence intensity (a.u.).
In the case of “TGTCACTTATTTAATTTACTTTGCTTTATACTCCTTCCGTCGGAGTCACCTAGTGCAG”, the binding signal was 5350 fluorescence intensity (a.u.).
Then “TACAGATCTATCATGCTTTAAGATTGGTGAGGATACATGTCGGAGTCACCTAGTGCAG”, with 3720 fluorescence intensity (a.u.); and “TTGATTTATTGGTAGATTTGCAAATTGCAATGGAGAAGAACGGAGTCACCTAGTGCAG”, with 33200 fluorescence intensity (a.u.).
Then “TTGTATAAATTTATAATGCTCTTGAGCGCGTTTGGTTCCTCGGAGTCACCTAGTGCAG”, with 7920 fluorescence intensity (a.u.); and “GAGAATTGAAAGACATGAAAATTCTCAATTCTCTATGACGCGGAGTCACCTAGTGCAG”, with 13600 fluorescence intensity (a.u.).
Then “ATTTATCACAATCAAAATCAAATCAAACCGAAAAGGGAAGCGGAGTCACCTAGTGCAG”, with 9210 fluorescence intensity (a.u.).
Regarding “AACTGATATGTAGGGTATGATTGTAATGAAATTACGATTGCGGAGTCACCTAGTGCAG”, the binding signal is 10700 fluorescence intensity (a.u.).
Then “CAAATTGACAACCAGACTGACAAAATTTATAAATAAATGGCGGAGTCACCTAGTGCAG”, with 24000 fluorescence intensity (a.u.).
Then “CTGTATTCATTAGGGTGGGACTGTATACTATAGTTATTATCGGAGTCACCTAGTGCAG”, with 4450 fluorescence intensity (a.u.).
With “GGTGATTGCATTTGATTGGGTGGAAAAGGTTTGATTTTGTCGGAGTCACCTAGTGCAG” the figure was 64900 fluorescence intensity (a.u.).
Consider “TACTCTGACATGAATTGGTAATTTTATATAGGCTTTATCTCGGAGTCACCTAGTGCAG”, for which the binding signal is 7070 fluorescence intensity (a.u.).
